Reference: ChEMBL document CHEMBL5308541, “MAIP: An Open-Source Tool to Enrich High-Throughput Screening Output and Identify Novel, Druglike Molecules with Antimalarial Activity” (ACS Med Chem Lett, 2023)
The campaign covered roughly 150,000 compounds. About 540 (0.36%) showed an effect of 50% or more. This is one part of the list.

The compounds below were run on Plasmodium falciparum (assay: Primary screen in NF54 nanoGlo assay, in single point, at 2uM, 72h; a lower Z score goes with more inhibition). Conditions: timepoint 72 hour.
Assay type: functional, Erythrocyte

Row | Structure (SMILES) | % Inhibition [%] | Z score
1 | Cc1ccc(NCCCNCc2ccc(C)c3ncccc23)nc1 | 0 | -0.06
2 | Nc1nc(NCCCn2nnc3ccccc32)cc([C@H]2C[C@H](N)C2)n1 | 20 | -3.59
3 | CCC(Nc1ncnc2ccccc12)[C@H]1C[C@@H](O)C1 (stereo partly specified) | -4 | 0.71
4 | C[C@@H](CN1CCOCC1)NCc1ccc2c[nH]nc2c1 | 0 | -0.06
5 | c1ccc(-c2nc3c(c(NCCNc4ncccn4)n2)CCC3)nc1 | 41 | -7.15
6 | N#Cc1ccccc1OC[C@@H](O)CNCc1ccccc1CN1CCC(O)CC1 | 7 | -1.08
7 | O[C@@]1(CNc2cc(C(F)(F)F)nc(N3CCCC3)n2)CCCNCC1 | -12 | 1.86
8 | CNc1ccc(-c2cccc(C(=O)N[C@H]3CCCN(c4ncccn4)C3)c2)cc1 | -7 | 1.36
9 | Cn1cc(-c2ccnc(NCc3cccc(OC4CC4)c3F)n2)cn1 | -13 | 2.31
10 | COc1ccc(-c2cncc(C(=O)NCC3CCN(CCN(C)C)CC3)c2)cc1 | 94 | -16.22
11 | Cc1cccc(Nc2ccnc(Nc3ccc(N4CCN(C)CC4)cc3)n2)c1 | 89 | -13.46
12 | C[C@H](O)CN(C)C1CCN(C(=O)c2ccc3c(c2)nc(C(F)F)n3C)CC1 | -14 | 2.97
13 | CC(=O)c1[nH]c(C)c(C(=O)N2CCN3C(COCC3c3ccccc3)C2)c1C (stereo unspecified) | -3 | 0.48
14 | COc1ccc2cc(-c3cc(N)ccn3)[nH]c2c1 | 54 | -11.7
15 | CN1CC2(CCNCC2)C[C@H]1C(=O)NC1CCN(Cc2ccccc2)CC1 | 3 | -0.61
16 | Cn1c(=O)c(-c2nc3cc(N4CCOCC4)ccc3[nH]2)c(Cl)c2cc(Cl)ccc21 | -19 | 2.96
17 | O=c1c(C(F)(F)F)cc(-c2ccccc2)nn1Cc1csc(Nc2ccccc2)n1 | -15 | 2.24
18 | COc1cccc(CNc2nc(CN3CCN(C(C)C)CC3)nc3ccc(Cl)cc23)c1OC | 6 | -1.09
19 | Cc1nn(C)c(Oc2ccc(Cl)cc2)c1-c1nc2cc(C#N)ccc2[nH]1 | -2 | 0.29
20 | C1Cc2nc(NC3CC3)nc(N3CCC(c4nnn[nH]4)CC3)c2CCN1 | -11 | 1.9
21 | Cc1ccn2cc(-c3ccc(N4CCC(NCc5cccnc5)CC4)cc3)nc2c1 | 40 | -6.85

Row | Structure (SMILES) | % Inhibition [%] | Z score
22 | c1c[nH]c(-c2cncc(-c3ccc4c(c3)CCN4)c2)n1 | -10 | 1.81
23 | COc1n[nH]c(NC(=O)C2C3CCC(CC3)C2C(F)(F)F)n1 (stereo unspecified) | 3 | -0.44
24 | C(CN1CCC(N2CCCC2)C1)CN1CCC(N2CCCC2)C1 (stereo unspecified) | 4 | -0.81
25 | OCC1CCN(Cc2ccccc2NC2CCN([C@H]3CCOC3)CC2)CC1 | -6 | 0.88
26 | Cn1cc(-c2nc(C(=O)N(c3cccc(N4CCCC4)c3)C3CCCCCC3)cs2)cn1 | -1 | 0.25
27 | CN(C)CCN1CCC(NC(=O)NCC2CCN(c3ccncc3)CC2)CC1 | 3 | -0.56
28 | Cc1cnc(NCc2ccc3c(c2)CCCO3)nc1N(C)C | -6 | 1.14
29 | CC(=O)c1[nH]c(C)c(C(=O)N2CCC[C@H](CNC(=O)c3cncc(F)c3)C2)c1C | -2 | 0.41
30 | CO[C@@H]1C[C@H](CNC(=O)c2cnc3[nH]ccc3c2)N(c2ccncn2)C1 | -7 | 1.39
31 | CS(=O)(=O)CCN1CCC(Nc2nc3ccc(F)cc3o2)CC1 | 2 | -0.33
32 | CC(C)Oc1cc(NC[C@H]2CCNC2)ncn1 | -4 | 0.8
33 | C[C@@H](CNc1nc2ccccc2[nH]1)c1nccs1 | 0 | 0.04
34 | Nc1nc(N2CCOCC2)cc(N2CCC([C@H](O)c3ccccn3)CC2)n1 | -16 | 2.41
35 | CN(Cc1nc2ccc(F)cc2[nH]1)C(=O)c1cc(-c2ccsc2)[nH]n1 | -3 | 0.56
36 | CN1CCN(CCCNC2CCCC2Cc2ccccc2)CC1 (stereo unspecified) | 13 | -2.22
37 | Cc1ccc(-n2[nH]c(C(=O)Nc3ccc4[nH]c(-c5ccc(F)cc5)nc4c3)cc2=O)cc1 | -5 | 0.94
38 | CC(=O)N[C@H]1CCN(C(=O)c2cccc(-c3cnc4[nH]c(C)nc4c3)c2)C1 | -17 | 2.98
39 | CN1CCN(CCCNc2ncnc3cc[nH]c23)CC1 | 1 | -0.12
40 | Cc1nn(C(C)C)c(C)c1S(=O)(=O)N1CC[C@H](Oc2nccnc2C#N)C1 | 0 | 0.07
41 | CN(C)C1CN(S(=O)(=O)N2CCC(C)(C)CC2)CC1O (stereo unspecified) | 3 | -0.44
42 | Cc1noc(C)c1[C@@H](C)CNS(=O)(=O)c1ccc(C(=O)O)cc1 | -11 | 1.64

Row | Structure (SMILES) | % Inhibition [%] | Z score
43 | c1ccc(C2(CNc3nc4ccccc4[nH]3)CCC2)nc1 | 1 | -0.19
44 | CS(=O)(=O)N1CCc2ccc(C(=O)NCCN3CCC(N4CCCCC4)CC3)cc21 | 4 | -0.62
45 | COCc1cc(NC(=O)NC2C(C)C(OC)C2(C)C)ncn1 (stereo unspecified) | -6 | 0.91
46 | CCN(Cc1noc(C)n1)C(=O)Nc1ccccc1CCC(=O)NC | -10 | 1.73
47 | Cc1cc(F)ccc1S(=O)(=O)NC1COCC1CS(=O)(=O)N(C)C (stereo unspecified) | 0 | -0.1
48 | C[C@@H](Cn1cccn1)n1cnc(-c2ccccc2)c1-c1cnc2ccccc2c1 | -1 | 0.2
49 | CO[C@H]1C[C@H]2CC(NCCCNc3ccccc3)C[C@H]2C1 (stereo partly specified) | -1 | 0.08
50 | c1ccc2c(N3CCN(Cc4cc(CN5CCCC5)cs4)CC3)nsc2c1 | -2 | 0.44
51 | CC(CN1CCOCC1)N1CCC(Oc2ccnc(CN(C)C)c2)C1 (stereo unspecified) | 5 | -1.09
52 | CCN1CCOC(CNC(=O)C2CCCC(C(=O)O)C2)C1c1cnn(C)c1 (stereo unspecified) | 0 | -0.09
53 | O=C(NCCN1CCC(N2CCCCC2)CC1)c1cc2n(n1)C[C@@H](Oc1ccncc1)C2 | 1 | -0.13
54 | COCC(O)CN1CCC(NC2CCCNc3ccccc32)CC1 (stereo unspecified) | -7 | 1.28
55 | COC[C@H](C)/N=C(\N)NCc1ccc(OC)c(C(=O)OC)c1 | -2 | 0.38
56 | Cc1nc(N2CCC(Nc3ncc(Cl)cn3)CC2)cc(C(F)(F)F)n1 | 6 | -1.28
57 | CCc1nnc(-c2ccc(NCc3cccc4[nH]ccc34)cc2)o1 | -5 | 0.85
58 | CN(Cc1ccncn1)C1CCN(c2ccc(-c3cccc(F)c3)cc2)CC1 | -3 | 0.55
59 | N#Cc1ccc(N2CCN(c3nccc4ccc(F)cc34)CC2)nc1 | -2 | 0.31
60 | CN1CCCN(CC2CC(CO)CN(C/C=C/c3ccc(F)cc3)C2)CC1 (stereo unspecified) | 19 | -3.74
61 | O=C1C2CCCCC2C(c2c(-c3ccccc3)[nH]c3ccccc23)N1Cc1ccccc1 (stereo unspecified) | 41 | -8.2
62 | O[C@H]1CCCN(CCCNc2nccc3ccccc23)C1 | -2 | 0.39
63 | Cc1cc(S(=O)(=O)NCc2csc(=O)[nH]2)c(C)s1 | -5 | 1.15

Row | Structure (SMILES) | % Inhibition [%] | Z score
64 | Cc1cnccc1NCCNCc1cccc(OCCCCN2CCOCC2)c1 | 95 | -20.36
65 | Fc1ccc2[nH]c(-c3ccon3)nc2c1 | -12 | 2.09
66 | Cc1cc(O)c(Cl)cc1-c1ccc2nccc(N)c2c1 | 91 | -15.94
67 | O=C(Cc1cc[nH]n1)N[C@@]1(Cc2ccc(Cl)cc2)CCOC1 | 1 | -0.08
68 | CN1CC[C@H](CNc2ncnc3c2CCN(C2CCOCC2)CC3)C1 | -4 | 0.73
69 | O=S(=O)(Cc1noc2ccccc12)N1CCC[C@H](Cn2ccnn2)C1 | 2 | -0.34
70 | O[C@@]1(CN2CCN(C/C=C/c3ccccc3)CC2)CCCN2CCCC[C@@H]21 | 8 | -1.68
71 | CN1CCCN(CCCNC2CCC(C(F)(F)F)CC2)CC1 (stereo unspecified) | 19 | -3.29
72 | C[C@H]1COCCN1CCN1CCC(c2nc3c(F)cccc3[nH]2)CC1 | -5 | 0.75
73 | CN1CCN(C(=O)CN2CCN(CCC(=O)Nc3ccc4cc[nH]c4c3)CC2)CC1 | 5 | -0.91
74 | Cc1cc(N2CCN(C[C@H](O)C(C)(C)C)CC2)nc(N)n1 | -11 | 1.98
75 | Cc1cccc(N2CCN(Cc3nc(-c4ccc(-c5ccccc5)cc4)oc3C)CC2)n1 | -8 | 1.43
76 | CC(C)C1CCC(N2CCN(CCN3CCO[C@@H](C)C3)CC2)CC1 (stereo partly specified) | -7 | 1.09
77 | Cc1cc(NC(=O)NC[C@H](O)c2cccs2)n(CC(C)C)n1 | -5 | 0.72
78 | OCCNc1nc(NC2CCCCCC2)cc([C@H]2CCOC2)n1 | -11 | 1.83
79 | O=C(C1CCCC1)N1CC(O)C(Cc2ccnc3ccccc23)C1 (stereo unspecified) | 5 | -0.99
80 | O=C(CN1Cc2ccccc2C1=O)N[C@@H](C(=O)O)c1ccc2c(c1)CCO2 | -5 | 0.86
81 | O=C(c1ccc(N[C@H]2CCCN(Cc3ccc(F)cc3)C2)nc1)N1CCOCC1 | -1 | 0.19
82 | c1ccc(N2CCOCC2)c(CNc2ccc3[nH]ncc3c2)c1 | -4 | 0.79
83 | C[C@@H](c1ccco1)N(C)S(=O)(=O)N1CCOC(C)(C)C1 | -1 | 0.24
